Test results published in the RNAGym collection of RNA variant scans (doi:10.1073/pnas.2313332121).
This sample is rich in variants without activity.

B1: TPR 5TU (parent)
chain: GGAUCUUCUCGAUCUAACAAAAAAGACAAAUCUGCCACAAAGCUUGAGAGCAUCUUCGGAUGCAGAGGCGGCAGCCUUCGGUGGCGCGAUAGCGCCAACGUUCUCAACUAUGACACGCAAAACGCGUGCUCCGUUGAAUGGAGUUUAUCAUG

Variants of: B1
Experiment: polymerase ribozyme fitness, log enrichment relative to wild type (log ratio); higher = more active; in vitro selection for triplet polymerase activity
In short: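 A single round of triplicate in vitro selection, including frozen incubation at −7 °C, was applied to PCR-built, transcribed mutant libraries of each subunit of a heterodimeric triplet polymerase ribozyme. Illumina sequencing of input and output libraries retained genotypes with ≥10 input reads and ≥1 read per output. Fitness is the base-2 logarithm of genotype enrichment divided by wild-type enrichment, from inverse-variance-weighted replicate averages.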

Row | Variant | polymerase ribozyme fitness (log ratio)
1 | A37C U55A C105A | ≤ -4.2
2 | A37C U56A U90A C103G A121U C123U G141C | ≤ -4.2
3 | A37C U77A A91U | ≤ -4.2
4 | A37C U77G C79U G94C G126U | ≤ -4.2
5 | A37C U102G | ≤ -4.2
6 | A37G A47G U53G C54U C87G A106U A122U G141A A142C U144C | ≤ -4.2
7 | A37G A52C A97C | -3.67
8 | A37G A52C C95U A98C | -3.46
9 | A37G A52C U55A C57G G67A C69A G83A | ≤ -4.2
10 | A37G A52C U56A U111G U139C | ≤ -4.2
11 | A37G A64G G80A G88U G143A | ≤ -4.2
12 | A37G A97G C114U A137U A142U | ≤ -4.2
13 | A37G C38A G48U | -2.25
14 | A37G C51U C54A G94C C96A C116A A120G C131G | ≤ -4.2
15 | A37G C54A G141A | -2.78
16 | A37G C54U C72A C85G | ≤ -4.2
17 | A37G C57U G74U C76G G88A U148A | ≤ -4.2
18 | A37G C87U G140U C149G | ≤ -4.2
19 | A37G C95G C114U A119U A120G | ≤ -4.2
20 | A37G C95U | -2.43
21 | A37G G46A A47U C93G C114U | ≤ -4.2
22 | A37G G48C G50C G65A G74U G84A G100A G126C A147U | ≤ -4.2
23 | A37G G48U G62U C63G C69U G84A C93U C108U G133U | ≤ -4.2
24 | A37G G50A C105G A121C G133U G136U | ≤ -4.2

Row | Variant | polymerase ribozyme fitness (log ratio)
25 | A37G G74U C87G A115C | ≤ -4.2
26 | A37G G88U A137U | ≤ -4.2
27 | A37G G92A U148C C149G | ≤ -4.2
28 | A37G U44C A122C G133C A150C | ≤ -4.2
29 | A37G U53C U90G A110U A137C | ≤ -4.2
30 | A37G U55G C85G | -3.49
31 | A37G U56A G88C C99U | ≤ -4.2
32 | A37G U77A C87A C99U G140C A147U | ≤ -4.2
33 | A37G U82A A89C | ≤ -4.2
34 | A37U A39U A41C C85A A113G A120G C125U A137U | ≤ -4.2
35 | A37U A40C U55A G58A G59A G84C G126A | -4.07
36 | A37U A47C C85U C95U A113C U148A G152U | ≤ -4.2
37 | A37U A52C C57A C85G A137U A142U | ≤ -4.2
38 | A37U A52C G70C G84A G100C U139A | ≤ -4.2
39 | A37U A52G G83A G84A A115U | ≤ -4.2
40 | A37U A60U G71C G84A C116A G124C U146G | ≤ -4.2
41 | A37U A66U U78G A91G C93U U111G A147C | ≤ -4.2
42 | A37U A89C C96U C103G U111A | ≤ -4.2
43 | A37U C38U A91G G133U G141A | ≤ -4.2
44 | A37U C38U C76G C93U C96A C118U G143U | ≤ -4.2
45 | A37U C51G G88A | ≤ -4.2
46 | A37U C54U C93U | -2.44
47 | A37U C57U G88A G92A | ≤ -4.2
48 | A37U C76G C87A G117A G141U G143U | ≤ -4.2

Row | Variant | polymerase ribozyme fitness (log ratio)
49 | A37U C85U C95A A119U A138G | ≤ -4.2
50 | A37U C95G | -3.51
51 | A37U C96G C116G A138U | ≤ -4.2
52 | A37U G50A A52C U82G C103G | ≤ -4.2
53 | A37U G58U C96U C118G U146C | -3.08
54 | A37U G67A C75U C85U U139G A150G | ≤ -4.2
55 | A37U G68U C118A | ≤ -4.2
56 | A37U G83C C85A C93G A119G U139G | ≤ -4.2
57 | A37U G88U C96A | ≤ -4.2
58 | A37U U45A G46C C85U C105U U144A | ≤ -4.2
59 | A37U U56G G88U C125G | ≤ -4.2
60 | A37U U61A A98U C123U A137U | ≤ -4.2
61 | A37U U134G | -2.86
62 | A37U U135A | -2.34
63 | C38A A41U A52C | -2.5
64 | C38A A47U C51A A60G C95A G141U | ≤ -4.2
65 | C38A A64G C69G C87U U134A U151C | ≤ -4.2
66 | C38A A66U C99G | ≤ -4.2
67 | C38A A73C C75G A120C | ≤ -4.2
68 | C38A A91G C96G C103A U145G | ≤ -4.2
69 | C38A C57G U77G C79U A91G | ≤ -4.2
70 | C38A C63G A150G | -3
71 | C38A C72U C75A U144G | ≤ -4.2
72 | C38A C75G G94A | ≤ -4.2

Row | Variant | polymerase ribozyme fitness (log ratio)
73 | C38A C85U U90A A147U | ≤ -4.2
74 | C38A C87A A107C A121U A138G | ≤ -4.2
75 | C38A C93A G143U | -4.12
76 | C38A C93G | ≤ -4.2
77 | C38A C93G C96U A115G G117A | ≤ -4.2
78 | C38A C93G U151G | ≤ -4.2
79 | C38A C95A C118A | -1.55
80 | C38A C96U C99U | -0.43
81 | C38A G50C C54G C76U G94A C105A | ≤ -4.2
82 | C38A G58C C87U | -0.072
83 | C38A G58U C95G | -1.52
84 | C38A G83A A107U C108A | ≤ -4.2
85 | C38A G84A G86C G117U | ≤ -4.2
86 | C38A G92C G94U G112C | ≤ -4.2
87 | C38A U53A A60U C93G C131A G141C | -3.94
88 | C38A U55A A106C G117A U146A | -1.67
89 | C38A U55A C85A | -2.66
90 | C38A U56A G74C G92U U109G | ≤ -4.2
91 | C38A U56A G86C | -3.01
92 | C38A U56G C93G C95A | ≤ -4.2
93 | C38A U61G C69U G84A C85U G140U | ≤ -4.2
94 | C38G A39C A73G G94A | ≤ -4.2
95 | C38G A39U A60C G92U U101A A113U | ≤ -4.2
96 | C38G A40G G83A | -3.86

Row | Variant | polymerase ribozyme fitness (log ratio)
97 | C38G A40U U55A U56A C87U A89C | -3.99
98 | C38G A41G U55A G83A G143A | -1.78
99 | C38G A52G U56A C57U A73C G80U C129U U148G | ≤ -4.2
100 | C38G A60G C76G G81A G84U U102G C116U G128A | ≤ -4.2
101 | C38G A73U C95A U146G | -2.85
102 | C38G A89C C93A C95G U109C | ≤ -4.2
103 | C38G C43U C87A C132G U135G G136C U146A | ≤ -4.2
104 | C38G C76G U82A | ≤ -4.2
105 | C38G C85U A89C | -1.86
106 | C38G C87A C93A U111G A115U A142G | ≤ -4.2
107 | C38G C123A | -0.288
108 | C38G G42C U61G G86U | ≤ -4.2
109 | C38G G42C U82G G86C G141C U144G | ≤ -4.2
110 | C38G G42U G68A U77A C96U G141U | ≤ -4.2
111 | C38G G46A A52G A91U G112C U145G | ≤ -4.2
112 | C38G G67A C79G U90G | ≤ -4.2
113 | C38G G71A U82G A107U | ≤ -4.2
114 | C38G G80C C99G C116U | -0.78
115 | C38G G81A C93G C99G G117A G136U | ≤ -4.2
116 | C38G U53C G67U G88A G133C G140U G143A | ≤ -4.2
117 | C38G U77C C123G U139C | ≤ -4.2
118 | C38U A40U C116U U135A | 0.399
119 | C38U A41G A52C U82C G84A A89C C96G C103G A106U G136A | ≤ -4.2
120 | C38U A47C A49C G59U A64U U151C | ≤ -4.2

Row | Variant | polymerase ribozyme fitness (log ratio)
121 | C38U A47U C79A G83A G133U | ≤ -4.2
122 | C38U A49C G86A U130A G143A | ≤ -4.2
123 | C38U A49U U61A C76A C93U G100C A106U A122U C149U | ≤ -4.2
124 | C38U A49U U61G G83U G133C A142C | ≤ -4.2
125 | C38U A52C U55G G58A C93U C103G | ≤ -4.2
126 | C38U A52C U61A C85G A89U C96G G140A | ≤ -4.2
127 | C38U A64C U109G A113G C114U C125U C129G C149G | ≤ -4.2
128 | C38U A64U G65A C87U G141A | ≤ -4.2
129 | C38U A73U | 0.0337
130 | C38U A89G | -1.07
131 | C38U C51U C75U C99G U101C A150C | ≤ -4.2
132 | C38U C54A G71A | ≤ -4.2
133 | C38U C54G C95A U104C C114A | ≤ -4.2
134 | C38U C57A C63U C95U A98U C99G | -1.54
135 | C38U C63A G70A C76A | ≤ -4.2
136 | C38U C63A G94C | -0.694
137 | C38U C69A U82A G94U | -3.99
138 | C38U C75G C76A C87G G140U | ≤ -4.2
139 | C38U C76U C85A A106C | ≤ -4.2
140 | C38U C79A C95U | ≤ -4.2
141 | C38U C79G G94A C95G A97C | ≤ -4.2
142 | C38U C85G U135C | ≤ -4.2
143 | C38U C87G C96U | ≤ -4.2
144 | C38U C93G C125A | -3.39

Row | Variant | polymerase ribozyme fitness (log ratio)
145 | C38U C95G U102A | -2.51
146 | C38U C96G | -1.09
147 | C38U C96G A142U U146A | -1.67
148 | C38U C96U G126A G140U A142U | ≤ -4.2
149 | C38U C125A | -0.6
150 | C38U G42C C96G | ≤ -4.2
151 | C38U G42C U55A C105A C116A G124C U148G | ≤ -4.2
152 | C38U G42U G46A A47U A60C C63U G86A | ≤ -4.2
153 | C38U G48A A49C G71U G81A | ≤ -4.2
154 | C38U G48U U61A G65A C87U A97U | ≤ -4.2
155 | C38U G58C C96U A98G | 0.385
156 | C38U G58C G59A C85A U90A C93G C129G G133A C149G | ≤ -4.2
157 | C38U G58U C85U C108A U134A U144C | ≤ -4.2
158 | C38U G62A A113G G136A | -2.45
159 | C38U G62A C96U C129U | -0.672
160 | C38U G68A A97G | ≤ -4.2
161 | C38U G68A C85U C108G U146A | ≤ -4.2
162 | C38U G80C C85U G100U | ≤ -4.2
163 | C38U G81A C105A C129G U144A | ≤ -4.2
164 | C38U G83C U102G A115U | ≤ -4.2
165 | C38U G86A | -1.16
166 | C38U G86A C99G C108A A115U U135A | ≤ -4.2
167 | C38U G86U | -1.57
